Results reported in the supplement of paper PMC9433436.
± gives the standard deviation of the averaged measurements. In all, about 4,100 sequences were measured (“relative kcat/Km (krel) vs genomic leader AAAGAU”: median about 1.7, highest 2% from about 6.5 on). Only a part is listed here, and it is no random draw.

Target: T1, E. coli RNase P holoenzyme (M1 P RNA + rnpA protein) (UniProt P0A7Y8)
T1 sequence: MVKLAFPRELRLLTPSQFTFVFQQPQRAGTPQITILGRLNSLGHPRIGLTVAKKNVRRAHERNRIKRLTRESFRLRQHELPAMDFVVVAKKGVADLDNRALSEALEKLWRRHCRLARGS
Assay: relative kcat/Km (krel) vs genomic leader AAAGAU (relative (reference leader = 1)); higher = faster RNase P cleavage
Experimental: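 HTS-Kin: a pool of ptRNA-Met (21C construct) with all 4096 combinations of 5' leader nucleotides N(-6) to N(-1) was processed in vitro by E. coli RNase P (P RNA + rnpA/C5 protein) under multiple-turnover conditions at 37 C, pH 8, 17.5 mM MgCl2. Residual substrate was Illumina-sequenced at several fractions reacted, and relative kcat/Km (krel) was computed by internal competition kinetics, calibrated to the genomic leader (AAAGAU = 1). The listed hexamer is the varied N(-6)..N(-1) leader (DNA letters), and it sits between a fixed 5' stem-loop flank (GCAUGCACGAAAGUGCGUGCUAUGAA) and the mature tRNA-Met starting GGCUACGUAGCUCAGUUGG. Two technical replicates are averaged.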

[1] = fraction of substrate reacted: ~13-16% (15.68% repeat 1, 13.17% repeat 2)
[2] = fraction of substrate reacted: ~26-29% (28.66% repeat 1, 26.4% repeat 2)
[3] = fraction of substrate reacted: ~9-10% (9.79% repeat 1, 9.1% repeat 2)

Row | Sequence | relative kcat/Km [1] | relative kcat/Km [2] | relative kcat/Km [3]
1 | CAGATA | 1.09 ± 0.29 | 1.32 ± 0.13 | –
2 | ATCACG | 1.4 ± 0.23 | 2.97 ± 0.3 | 1.99 ± 1.5
3 | CACTTT | 4.55 ± 0.76 | 6.22 ± 2.4 | 3.33 ± 1.1
4 | GGTACT | 1.48 ± 0.13 | 2.24 ± 0.87 | 1.06 ± 0.27
5 | GCCTTC | 4.03 ± 2.2 | 5.81 ± 3.1 | 3 ± 0.21
6 | GGGTGG | – | 0.703 ± 0.6 | –
7 | CCGTGG | – | 0.516 ± 0.37 | –
8 | ACATGA | 2.54 ± 0.94 | 4.25 ± 2 | 2.27 ± 0.64
9 | GCTTGT | 1.19 ± 1 | 1.81 ± 1.6 | –
10 | ATTCAG | 0.859 ± 0.06 | 2.48 ± 0.15 | –
11 | ACTAAC | 1.42 ± 0.44 | 2.32 ± 0.65 | 1.48 ± 0.31
12 | CAAACG | 0.172 ± 0.13 | 0.797 ± 0.69 | –
13 | AGCTAC | 3.3102 ± 0.0027 | 4.78 ± 1.9 | 1.27 ± 0.29
14 | GTAGAA | 1.7 ± 0.13 | 3.06 ± 0.87 | 2.15 ± 0.51
15 | ATGTGC | 1.12 ± 0.55 | 1.28 ± 0.43 | 0.846 ± 0.63
16 | TCCCTT | 4.28 ± 1 | 5.52 ± 2 | 3.55 ± 1.3
17 | CATATC | 1.99 ± 0.036 | 2.93 ± 1.2 | 1.64 ± 0.55
18 | ATAGGT | – | 2.15 ± 1.4 | –
19 | GAACTC | 1.71 ± 1.1 | 1.8 ± 0.52 | 1.6 ± 0.92
20 | ATTTTT | 2.63 ± 0.22 | 3.89 ± 1.3 | 2.48 ± 0.92
21 | ACTATG | 1.28 ± 0.66 | 2.54 ± 0.28 | 0.987 ± 0.91
22 | GGGACT | 0.923 ± 0.07 | 1.16 ± 0.37 | 1.47 ± 0.38
23 | AACTAA | 4.29 ± 1.7 | 6.5 ± 3.1 | 2.93 ± 0.16
24 | TGACCA | 0.615 ± 0.6 | 1.45 ± 0.74 | –
25 | CCCATC | 3.86 ± 0.75 | 4.47 ± 1.3 | 3.16 ± 2
26 | CACCCG | 0.433 ± 0.24 | 1.45 ± 0.21 | 1.31 ± 0.78

Row | Sequence | relative kcat/Km [1] | relative kcat/Km [2] | relative kcat/Km [3]
27 | GTTGCA | 1.71 ± 0.42 | 2.28 ± 1.1 | 1.92 ± 0.31
28 | TAAGGC | – | 2.44 ± 2.2 | 1.46 ± 0.72
29 | GATCTA | 1.99 ± 0.21 | 2.36 ± 0.86 | 2.53 ± 1.2
30 | GAGTTA | 1.64 ± 0.47 | 2.58 ± 0.83 | 2.04 ± 0.57
31 | ACGATT | 1.48 ± 0.32 | 2.03 ± 0.045 | 2.33 ± 0.98
32 | AGGAAC | 1.95 ± 0.31 | 1.84 ± 0.94 | 1.82 ± 0.51
33 | TGCAGT | 2.03 ± 1.7 | 2.08 ± 2 | –
34 | ACTCCG | 0.119 ± 0.0044 | 0.829 ± 0.12 | 0.619 ± 0.38
35 | GAGACC | 0.952 ± 0.75 | 1.4 ± 0.17 | 1.6 ± 1
36 | GGAGTA | – | 0.53 ± 0.14 | –
37 | ATCCCT | 3.48 ± 0.4 | 4.42 ± 1.8 | 2.7 ± 0.55
38 | ACGGAC | 1.07 ± 0.098 | 1.06 ± 0.54 | 0.549 ± 0.26
39 | TCTGGT | – | 1.45 ± 0.27 | –
40 | TTCCTC | 5.25 ± 0.81 | 6.88 ± 2.5 | 4.47 ± 1.9
41 | CTCCGA | 5.35 ± 1.6 | 8.07 ± 3.3 | 4.78 ± 2
42 | TCTGCC | 1.8 ± 0.49 | 2.57 ± 0.081 | 2.33 ± 0.57
43 | CGTTGC | 3.77 ± 0.65 | 5.14 ± 1.6 | 3.92 ± 1.2
44 | TCTAGG | 0.66 ± 0.37 | 1.66 ± 0.39 | 1.37 ± 1.2
45 | TCGCTT | 2 ± 0.15 | 2.43 ± 0.46 | 1.69 ± 0.27
46 | GCCTAT | 3.91 ± 0.98 | 6.22 ± 2.8 | 2.77 ± 0.47
47 | CGTTGT | – | 1.21 ± 0.9 | 0.465 ± 0.32
48 | TCAATT | 1.92 ± 0.12 | 2.3 ± 0.3 | 2.1 ± 1.1
49 | CTATTC | 2.08 ± 0.56 | 2.98 ± 0.77 | 2.19 ± 0.38
50 | ATAAAC | 2.37 ± 0.16 | 2.94 ± 1 | 1.98 ± 1.2
51 | ATTAGA | 3.38 ± 0.27 | 4.95 ± 2 | 3.28 ± 1.3
52 | TATTTA | 2.93 ± 0.48 | 4.12 ± 1.6 | 2.61 ± 1.7

Row | Sequence | relative kcat/Km [1] | relative kcat/Km [2] | relative kcat/Km [3]
53 | TCCTTA | 4.61 ± 0.54 | 6.32 ± 2.4 | 3.84 ± 1.5
54 | GGGCTA | 1.01 ± 0.35 | 1.09 ± 0.14 | 0.822 ± 0.23
55 | CATAAT | 3.28 ± 0.4 | 5.16 ± 2.4 | 3.02 ± 1.2
56 | ATTTTC | 2.54 ± 0.1 | 2.94 ± 0.38 | 2.84 ± 1.7
57 | TGGACC | 0.618 ± 0.3 | 0.551 ± 0.0088 | 0.825 ± 0.51
58 | TTACAT | 4.6 ± 0.74 | 6.4 ± 2.5 | 3.53 ± 1.5
59 | AGGGCT | – | 0.459 ± 0.027 | –
60 | GACACA | 3.86 ± 1.4 | 5.32 ± 2.2 | 2.62 ± 0.8
61 | CTGGGA | – | – | 0.548 ± 0.39
62 | TAACCT | 1.39 ± 0.36 | 2.19 ± 1.5 | 1.14 ± 0.046
63 | TAGAGA | 2.86 ± 0.48 | 4.09 ± 1.6 | 3.11 ± 1.1
64 | GTAGCA | 1.51 ± 0.38 | 1.94 ± 0.57 | 1.64 ± 0.038
65 | CCGATA | – | 1.35 ± 0.2 | 1.28 ± 0.26
66 | CGCCGT | – | 1.06 ± 0.75 | 0.516 ± 0.5
67 | ACCAGT | – | 0.68 ± 0.25 | –
68 | TATTTG | 0.733 ± 0.45 | 1.86 ± 0.14 | –
69 | AACCCT | 1.61 ± 0.32 | 2.01 ± 0.28 | –
70 | AGAAAT | 2.91 ± 0.24 | 3.16 ± 0.78 | 2.45 ± 1.1
71 | AAGTTC | 2.2 ± 0.33 | 1.98 ± 0.045 | 2.18 ± 0.84
72 | AATCGC | 2.58 ± 0.92 | 3.68 ± 1.6 | 2.71 ± 0.87
73 | TCATCA | 2.5 ± 0.069 | 3.35 ± 1.1 | 2.45 ± 1.2
74 | ATTATA | 1.76 ± 0.6 | 2.97 ± 1.1 | 2.41 ± 1.2
75 | TCTTAT | 5.44 ± 1.1 | – | 4.12 ± 1.9
76 | AAAGAG | – | 1 ± 0.17 | –
77 | CGAAGG | – | 0.718 ± 0.53 | 0.982 ± 0.12
78 | GCCTAC | 4.5 ± 0.39 | 6.1 ± 2.4 | 3.67 ± 1.2

Row | Sequence | relative kcat/Km [1] | relative kcat/Km [2] | relative kcat/Km [3]
79 | CCGAAT | 2.93 ± 1.4 | 3.35 ± 1.6 | 2.07 ± 0.072
80 | CTTACG | 0.767 ± 0.29 | 1.67 ± 0.14 | –
81 | TGCTTG | – | 0.812 ± 0.49 | –
82 | TCGAAG | 1.69 ± 1.2 | 2.82 ± 0.37 | 2.36 ± 1.7
83 | AGTATC | 3.59 ± 0.089 | 4.17 ± 1.4 | 2.72 ± 1.1
84 | TGTTCA | 2.63 ± 0.08 | 4.05 ± 1.9 | 1.48 ± 0.037
85 | GCACAG | – | 0.529 ± 0.39 | –
86 | CGCCAT | 4.6 ± 1.3 | 6.07 ± 2.5 | 3 ± 0.35
87 | ATAAAG | 0.5 ± 0.38 | 1.63 ± 0.27 | 0.655 ± 0.012
88 | GTCCCA | 3.04 ± 0.53 | 4.38 ± 1.3 | 1.79 ± 0.89
89 | GTACAT | 3.45 ± 0.14 | 5.17 ± 2.2 | 2.39 ± 1.4
90 | AAATTC | 1.98 ± 0.19 | 2.34 ± 0.6 | 2.35 ± 1.4
91 | CAACAC | 2.58 ± 1.3 | 3.75 ± 1.6 | 2.07 ± 0.14
92 | ATGCGG | – | 0.622 ± 0.45 | –
93 | GGCGGG | – | 0.878 ± 0.74 | –
94 | CAAACA | 1.01 ± 0.4 | 1.22 ± 0.063 | –
95 | CTGTAG | 0.916 ± 0.87 | 2.7 ± 0.46 | –
96 | GTGGAC | – | 1.4 ± 0.63 | 0.808 ± 0.45
97 | AGGATA | 1.32 ± 0.19 | 1.52 ± 0.7 | 1.66 ± 1.1
98 | CGTTCT | 3.46 ± 1.4 | 5.35 ± 2.5 | 2.36 ± 0.18
99 | CTTCGA | 2.97 ± 1.5 | 4.7 ± 2.1 | 2.43 ± 0.59
100 | AGTCCA | 2.15 ± 0.14 | 2.64 ± 0.88 | 2.43 ± 0.88
101 | CAAAAG | – | 1.32 ± 0.36 | 1.16 ± 1.2
102 | GGCCCT | 1.3 ± 0.24 | 1.98 ± 0.1 | 1.81 ± 0.9
103 | GGAAAT | 2.13 ± 0.18 | 2.93 ± 1.1 | 1.8 ± 0.19
